# Experimental data from the supplement of paper PMC3334620.
# Whole data set: some 33,000 sequences, median “E-score (-0.5 to 0.5)” near -0.021, cut for the highest 2% near 0.32. This is one part of the list.
# Target: T1, Zap1 (UniProt P47043)
# T1 sequence: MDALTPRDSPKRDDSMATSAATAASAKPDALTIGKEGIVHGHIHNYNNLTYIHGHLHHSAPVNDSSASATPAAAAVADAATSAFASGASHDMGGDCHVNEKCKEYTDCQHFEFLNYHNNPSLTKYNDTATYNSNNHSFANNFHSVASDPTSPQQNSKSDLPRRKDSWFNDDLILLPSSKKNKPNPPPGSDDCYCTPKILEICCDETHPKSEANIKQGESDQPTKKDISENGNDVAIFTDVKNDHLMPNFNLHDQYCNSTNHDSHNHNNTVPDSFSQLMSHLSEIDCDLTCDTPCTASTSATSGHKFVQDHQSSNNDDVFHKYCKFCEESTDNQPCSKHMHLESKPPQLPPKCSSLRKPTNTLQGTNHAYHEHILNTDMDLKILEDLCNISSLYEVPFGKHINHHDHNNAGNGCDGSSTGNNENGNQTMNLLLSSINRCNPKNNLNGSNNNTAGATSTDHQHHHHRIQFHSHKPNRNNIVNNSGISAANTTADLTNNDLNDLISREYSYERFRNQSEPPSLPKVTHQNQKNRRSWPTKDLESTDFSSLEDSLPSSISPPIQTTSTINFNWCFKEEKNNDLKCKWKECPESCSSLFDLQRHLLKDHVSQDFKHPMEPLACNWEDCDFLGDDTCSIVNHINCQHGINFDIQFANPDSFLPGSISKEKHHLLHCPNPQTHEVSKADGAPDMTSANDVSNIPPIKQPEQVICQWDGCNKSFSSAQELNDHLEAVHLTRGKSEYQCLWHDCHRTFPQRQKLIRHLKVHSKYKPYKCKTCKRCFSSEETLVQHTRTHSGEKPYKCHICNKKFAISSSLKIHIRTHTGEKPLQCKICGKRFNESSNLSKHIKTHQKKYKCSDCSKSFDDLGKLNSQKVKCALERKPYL
# Assay: PBM E-score (8-mer binding enrichment) (E-score (-0.5 to 0.5)); higher = stronger / more preferred TF binding; most listed sequences are background and not binding sites
# Conditions: protein concentration: 200 nM; construct: GST-full length
# In short: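 Using PURExpress in vitro transcription/translation, GST-tagged yeast transcription factors were made in full-length or DNA-binding-domain form. These were applied at about 100-200 nM to double-stranded universal all-10-mer Agilent arrays, and bound protein was detected with fluorescent anti-GST. Scans were normalised with masliner before the Universal PBM Analysis Suite assigned E-scores to ungapped eight-base words pooled with their reverse complements.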
row,Sequence,PBM E-score
1,ACGCTCGA,-0.134
2,AGTTGTAG,0.0534
3,GCTGCGCA,-0.346
4,ACAAGGGA,-0.00241
5,AGTAAGAG,-0.0194
6,AACATAGG,0.113
7,CACACCGC,-0.0381
8,TAAACTGA,0.118
9,GCGTCACA,-0.0785
10,CCTCCAAA,0.0685
11,ACGTCGGC,-0.347
12,ACCGCACA,0.0798
13,ACCTATTC,0.0722
14,AAAGGCTA,0.0247
15,GATTCTAA,-0.0858
16,GTCATTGA,0.0457
17,AAATCGGA,0.00386
18,AAGTCCGG,-0.0828
19,ATCTATCG,-0.167
20,ACGGAGCT,-0.178
21,AAGCCCCA,-0.198
22,ATTTTCTG,-0.0611
23,ATAACTGC,0.0306
24,AGCAAGTC,-0.151
25,GTAACACA,0.156

row,Sequence,PBM E-score
1,CGGACTGA,-0.154
2,CGCCCCTA,0.0687
3,AACAGTAG,-0.18
4,ACGACGTC,-0.18
5,CAAGAGAA,-0.00247
6,CGTACTGA,0.00053
7,GGACTAAA,0.0586
8,CGATCGGC,-0.112
9,AATCAGAG,0.0208
10,AAAGTCGC,0.175
11,ATGGGCAG,-0.125
12,CCAAACGA,0.0751
13,CCCGAAGA,-0.173
14,GCGAGAAC,-0.0902
15,TACGGCCA,-0.0117
16,GCATCCGA,-0.212
17,AGTCGACC,-0.0961
18,ACAGCACA,0.0162
19,GCCCCGCA,-0.123
20,CGGCTTTA,-0.0865
21,ATCTGTAA,0.0578
22,ACTTAGCT,-0.253
23,ACCTGTCT,-0.112
24,AACTAACG,0.166
25,GCCTAGGA,-0.246

row,Sequence,PBM E-score
1,CTGCTTGC,-0.145
2,CAATTGAG,0.0158
3,ACACCCCG,-0.0428
4,CAGAATGA,-0.0427
5,GAAATGAA,0.202
6,AACCATTG,0.271
7,ATCCTTGC,-0.141
8,AATTACCC,0.272
9,CCAAAGCA,0.109
10,CCAGAACC,0.304
11,CCCTAGCA,0.105
12,GCTCTGCC,-0.352
13,CTATAGAC,-0.0446
14,GTGTAGAA,-0.141
15,CGACGAAG,-0.229
16,AGCTTGGG,-0.06
17,GGTTTGCA,0.13
18,ACTACCTA,0.161
19,GGATTCCC,-0.244
20,CATTGAGA,0.0814
21,GGGTTAAC,0.403
22,AGCAAACA,0.0822
23,CCAGGTCA,0.121
24,CAGCGTCA,-0.176
25,AATCTGAT,-0.0529

row,Sequence,PBM E-score
1,TGGCTCAA,-0.142
2,CCTCTTAC,0.046
3,CGTTCAAA,0.0627
4,AGTTCCTG,-0.129
5,CATTGCGA,-0.0237
6,CCTGGACA,-0.0227
7,TGCAACCA,0.217
8,GTGGTGAA,-0.0676
9,CCTAGTAC,-0.0226
10,CCAGGCAA,-0.00138
11,CTGCACCA,-0.166
12,CTTTTGTA,0.162
13,AGCGAGAC,-0.195
14,CTCATGCC,-0.33
15,ACGACGGG,-0.024
16,CAGTAACC,0.44
17,CTTCTGGC,0.0319
18,AACTTTGT,0.135
19,GGTTATCA,0.445
20,ATTCCCCA,-0.128
21,CACGGGCA,-0.293
22,ATCACTTC,0.0188
23,CCCTTAAC,0.0959
24,AGACCCTC,0.092
25,GGGGGACA,-0.0784

row,Sequence,PBM E-score
1,CGTGGAAG,-0.0481
2,CGCCTTAA,0.166
3,GGTGTGGA,0.0481
4,CATTCACG,-0.0314
5,GGACCTAA,0.121
6,CACGGGGC,-0.126
7,CGCCGTGA,-0.0412
8,AGAGGTCA,0.41
9,GGGTAACA,0.334
10,CACGCGTC,0.0376
11,ATATAATA,0.155
12,CGCCATGC,-0.0963
13,ACTAGGGC,-0.163
14,AAGGGGGG,-0.48
15,CGCCGCCG,-0.0934
16,ATCCAAAG,0.174
17,GTCCTAAC,0.189
18,CACAGCGC,-0.102
19,CAATCGTA,-0.00286
20,GGAGGGCA,-0.147
21,CGGTCTAG,-0.0691
22,AAAATACG,0.0912
23,CAATTTCA,-0.304
24,ATTAACCG,0.331
25,ATGGATGC,0.13

row,Sequence,PBM E-score
1,CAGTACTG,-0.118
2,GACTCTAC,-0.257
3,TACTGGAA,0.12
4,AAGTTAGG,0.0455
5,AGTGTCAG,-0.055
6,ACTCCATC,-0.00363
7,ACTCGTCA,-0.117
8,CTTAGGGA,-0.123
9,CTAGCACA,-0.151
10,ACGTGCAT,-0.0904
11,TTCGACAA,0.118
12,ACTTCCCC,-0.219
13,CCCCAACG,0.212
14,CGAGTAAC,0.25
15,GCTGCGGA,-0.135
16,GGACCCTA,0.159
17,GTGTATCA,0.132
18,ACAACAAG,0.0549
19,CAGCACAC,-0.276
20,CGCTGTCA,-0.209
21,ACCAGTTA,0.206
22,AATCCTCG,-0.0575
23,AGTGTCTC,-0.259
24,CCGTTTAA,0.12
25,ACAGACTC,-0.215

row,Sequence,PBM E-score
1,GATGTTGC,-0.143
2,GCTGCCAA,-0.177
3,CACCCACG,0.123
4,ATATGGCA,-0.117
5,CACACAGG,-0.0209
6,GAATGGTA,0.202
7,ATGGCAAC,0.223
8,GTGTGTGA,0.0986
9,AAATCGTA,-0.0156
10,GTTCTTCA,-0.0277
11,CACTGCAC,-0.0532
12,AGTTCTTG,0.151
13,CTTTTTAC,0.171
14,CGGAATAA,0.0667
15,ATGGTAAA,0.0888
16,AAGATCGT,-0.0719
17,CAGGGTCG,0.275
18,CTCTTTTA,-0.0724
19,AGGTTCCG,0.2
20,AAAGATCC,-0.143
21,AGCCATAC,-0.0612
22,TGCACAAA,0.0826
23,CCCGGATC,-0.0795
24,GCATCACC,0.0458
25,TTCCTAAA,-0.0427

row,Sequence,PBM E-score
1,GGTGACAA,0.242
2,AGAAGTCC,-0.136
3,CAATACGC,-0.213
4,CTGAACGC,-0.216
5,CCGGCCGG,0.138
6,AGGTGAGG,0.118
7,CCCGGCAA,-0.137
8,GCCCTGCC,-0.0234
9,AGCGCGCT,-0.256
10,GCTTGCCA,-0.258
11,TCGGCGAA,-0.167
12,AGGTATTA,0.264
13,ACTACTAG,0.0529
14,CATAATCG,0.111
15,ATTAAGTC,-0.0888
16,AAGAGGTG,0.0323
17,CTACCGCA,0.00616
18,ACTCTAAA,0.203
19,CTGAAGTC,-0.0636
20,AACGGGAA,-0.195
21,GCATACAA,0.0405
22,GCATCCCC,-0.0489
23,ACCACGTG,0.154
24,ACGTGTAG,-0.272
25,GGACTCTA,-0.145

row,Sequence,PBM E-score
1,ACGGCGAG,-0.122
2,ATATCGGG,-0.0718
3,TCAAATGA,-0.0747
4,AATGAAGT,0.0905
5,GAATAAAA,0.23
6,CGTCGGTA,-0.096
7,AGTCACCC,0.124
8,TCCTAAGA,-0.17
9,GTTGTAAA,0.0295
10,ATATGATG,-0.0868
11,AGGGCAGC,-0.251
12,ATGCACAA,-0.00645
13,AAACATGG,0.0476
14,ACCAGCGC,-0.0562
15,GCTTGATA,0.133
16,AAGTGCAA,-0.0104
17,TGTGATAA,0.179
18,TGATTCAA,0.00028
19,CACATGGA,-0.0952
